Test results as given in publication PMC9207808 (ACS Chemical Biology, 2022).

Target: Doc1-122–His6 (DocSTm toxin) (Salmonella typhimurium)
Assay: SPR; Biacore S200; Doc-His6 captured on a Series S NTA chip (200-400 RU); peptide as analyte, single-cycle kinetics, six concentrations (3-fold dilutions), 30 uL/min; 22 C; 10 mM HEPES, 500 mM NaCl, 50 uM EDTA, 0.005% TWEEN 20, pH 8.0; kinetic 1:1 fit

Row | Substance | Kd | koff
1 | peptide 19 (PhdSTm52-73-K73A) | 0.101, 0.0634, 0.1, 0.103 nM | 0.000109 1/s, 0.000134 1/s, 0.000128 1/s, 0.000132 1/s
2 | peptide 1 (PhdSTm52-73) | 0.0734, 0.0838, 0.0591, 0.0819 nM | 7.7e-05 1/s, 8.9e-05 1/s, 9.5e-05 1/s, 0.000104 1/s
3 | peptide 12 (PhdSTm52-73-N65A) | 0.251, 0.166, 0.0853, 0.0833 nM | 0.000316 1/s, 0.000264 1/s, 0.00011 1/s, 0.00012 1/s

Some entries of the source have several records that differ or are many. This list holds those alone. There may be further records. The values listed for one entry appear to be repeats (runs, samples, wells or individuals); one of them may be the mean.
